Measurements published in PMC2362126.
No constants are given. Whether binding was seen depends on the method and setting. Some results given as binding are weak or reduced against the parent protein; the word gives no strength. Tags and fused reporters may be left off the sequences shown.

Sequences of proteins named here, by UniProt entry; tags and fusion partners are left off.
UniProt P19073: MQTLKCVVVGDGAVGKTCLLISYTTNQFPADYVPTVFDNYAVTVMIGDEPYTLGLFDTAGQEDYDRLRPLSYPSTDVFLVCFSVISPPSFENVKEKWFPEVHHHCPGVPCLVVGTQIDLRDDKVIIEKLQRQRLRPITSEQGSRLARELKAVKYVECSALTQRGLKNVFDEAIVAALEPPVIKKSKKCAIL
UniProt P34149: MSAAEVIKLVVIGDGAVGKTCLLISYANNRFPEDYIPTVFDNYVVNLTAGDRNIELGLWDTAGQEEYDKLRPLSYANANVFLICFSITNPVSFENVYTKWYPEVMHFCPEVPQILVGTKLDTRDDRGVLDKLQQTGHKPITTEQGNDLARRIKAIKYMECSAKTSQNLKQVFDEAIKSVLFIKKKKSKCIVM
UniProt O96390: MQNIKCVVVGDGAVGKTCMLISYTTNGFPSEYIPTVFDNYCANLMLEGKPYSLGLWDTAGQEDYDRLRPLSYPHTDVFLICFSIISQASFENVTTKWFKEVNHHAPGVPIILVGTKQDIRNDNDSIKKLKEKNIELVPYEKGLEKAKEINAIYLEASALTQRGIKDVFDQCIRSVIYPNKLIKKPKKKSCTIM
UniProt P34148: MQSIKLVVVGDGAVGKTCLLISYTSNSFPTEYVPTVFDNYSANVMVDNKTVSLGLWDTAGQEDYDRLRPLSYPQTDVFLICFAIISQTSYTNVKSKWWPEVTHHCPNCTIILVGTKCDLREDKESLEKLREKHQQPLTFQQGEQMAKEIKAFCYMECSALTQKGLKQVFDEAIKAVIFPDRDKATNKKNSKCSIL

Legend:
[1] = molecular target: S. cerevisiae Cdc42, two-hybrid fusion in pGBKT7 (S. cerevisiae) (UniProt P19073); test: two-hybrid; Matchmaker system (Clontech), Y190 yeast; RhoGDIs in pGADT7 or pACT2, Rho GTPases in pGBKT7 or pAS2-1; growth on -Trp/-Leu/-His/+3AT and colony-lift β-galactosidase assays
[2] = molecular target: D. discoideum RacC, two-hybrid fusion in pAS2-1 (D. discoideum) (UniProt P34149); test: as above
[3] = molecular target: D. discoideum RacF1, two-hybrid fusion in pAS2-1 (D. discoideum) (UniProt O96390); test: as above
[4] = molecular target: T1, D. discoideum RacE, two-hybrid fusion in pAS2-1 (D. discoideum) (UniProt Q23862); test: as above
T1 sequence: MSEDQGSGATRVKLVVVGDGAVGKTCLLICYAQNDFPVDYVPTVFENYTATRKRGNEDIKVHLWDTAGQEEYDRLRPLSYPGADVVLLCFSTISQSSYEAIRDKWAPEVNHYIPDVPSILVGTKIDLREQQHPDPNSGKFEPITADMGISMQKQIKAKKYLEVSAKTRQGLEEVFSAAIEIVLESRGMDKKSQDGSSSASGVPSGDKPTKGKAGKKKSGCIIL

[5] = molecular target: D. discoideum RacB, two-hybrid fusion in pAS2-1 (D. discoideum) (UniProt P34148); test: as above
[6] = molecular target: D. discoideum Rac1a, two-hybrid fusion in pAS2-1 (D. discoideum) (UniProt P34144); test: as above
[7] = molecular target: D. discoideum Rac1c, two-hybrid fusion in pAS2-1 (D. discoideum) (UniProt P34146); test: two-hybrid; as the two-hybrid assay of Fig. 5A (Y190 yeast, colony-lift β-galactosidase); DdRac1b and DdRac1c, result not shown
[8] = molecular target: D. discoideum Rac1b, two-hybrid fusion in pAS2-1 (D. discoideum) (UniProt P34145); test: as above
[9] = molecular target: human Cdc42, two-hybrid fusion in pAS2-1 (human), P60953; test: two-hybrid; Matchmaker system (Clontech), Y190 yeast; RhoGDIs in pGADT7 or pACT2, Rho GTPases in pGBKT7 or pAS2-1; growth on -Trp/-Leu/-His/+3AT and colony-lift β-galactosidase assays; conditions: remark: other sources report otherwise
[10] = molecular target: human RhoA, two-hybrid fusion in pAS2-1 (human), P61586; test: as above; conditions: remark: other sources report otherwise

B1: human LyGDI (RhoGDI2), two-hybrid fusion in pACT2 (protein, UniProt P52566 1-201)
chain: MTEKAPEPHVEEDDDDELDSKLNYKPPPQKSLKELQEMDKDDESLIKYKKTLLGDGPVVTDPKAPNVVVTRLTLVCESAPGPITMDLTGDLEALKKETIVLKEGSEYRVKIHFKVNRDIVSGLKYVQHTYRTGVKVDKATFMVGSYGPRPEEYEFLTPVEEAPKGMLARGTYHNKSFFTDDDKQDHLSWEWNLSIKKEWTE
binding [1]: binds | binding [2]: no binding | binding [3]: no binding | binding [4]: no binding | binding [5]: binds | binding [6]: binds | binding [7]: binds | binding [8]: binds

B2: human LyGDI (RhoGDI2), two-hybrid fusion in pACT2, P52566 1-201 (protein)
chain: B1 chain
binding [9]: binds | binding [10]: binds
